Test results as given in PubChem BioAssay AID938 (National Center for Advancing Translational Sciences (NCATS), 2007).
About 1,800 (2.5%) of roughly 73,000 compounds were called active. This list was built around the results that the source calls inconclusive (neither active nor inactive); the mix of calls is not that of the screen. The call rests on the fitted dose curve; in most records, active means well fitted activation curve with a large enough effect; inconclusive means small, poorly fitted or top-dose-only effect; inactive means no such curve, though single readings can be large or run the other way. No potency is given beside an inconclusive call; the fits are too rough.

experiment: qHTS Assay for Agonists of the Thyroid Stimulating Hormone Receptor: Activators of Intracellular cAMP Concentrations in Parental HEK 293; conditions: parental HEK293 CNG cAMP sensor, membrane potential fluorescence; activation: at 57.1 µM (top of the series) unless noted; further: nearly all actives have a fitted effect of over 55% in size; on activation: % of control where 0% means no effect
Summary of the method: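 Parental HEK 293 cells stably expressing a cAMP-gated CNG channel were loaded with membrane potential dye containing 100 uM RO 20-1724 for 60 min. Compound added for 30 min; depolarization read as fluorescence intensity at 590 nm.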
Potency means the concentration at half of the fitted maximal effect; tags describe the fitted curve by direction and shape.

SMILES	Potency	activation
COC(=O)C(C(=O)Nc1ccccc1C)C1CCCC1 (configuration not stated)	inconclusive [activator, partial curve]	
Cc1ccc(-c2noc(COc3ccccc3C)n2)cc1	active: 25.1 µM	
CC1(C)CCC(=O)N[C@H]1CC(=O)C[C@H]1NC(=O)CCC1(C)C		inactive: 11% [at 11.4 µM]
CN(Cc1ccccc1)C(=O)CSc1nnc(-c2ccco2)n1-c1ccccc1	inconclusive [activator, single point]	
CC(=O)[C@@H](C)CCO[C@@]1(C)OCC[C@@H]1C		inactive: -10.6% [at 11.4 µM]
c1ccc(-n2cccc2CNC2CCCCC2)cc1	active: 25.1 µM	
O=c1c(-c2ccc(F)cc2)nc2cnc(N3CCOCC3)nc2n1Cc1ccc(F)cc1	inactive	
COc1ccc2[nH]cc(CCNc3ncncc3-c3ccc4c(c3)OCO4)c2c1	inconclusive [activator, partial curve]	
CCOC(=O)c1c(C)nc2sccn12	inactive	
O=C(CSc1nnnn1-c1ccc2c(c1)CCC2)NCc1cccs1	inconclusive [activator, partial curve]	
COc1ccc(NC(=O)N(CCN2CCCC2)Cc2cc3cc(OC)c(OC)cc3[nH]c2=O)cc1	inconclusive [activator, partial curve]	
O=C(c1ccccc1)c1ccccc1C(=O)N1CCCC1	inactive	
CCN1CCN(Cc2coc3ccc(C)cc3c2=O)CC1	inconclusive [activator, single point]	
CCCCC(c1nnnn1CCOC)N1CCN(c2cccc(OC)c2)CC1 (configuration not stated)	inconclusive [activator, single point]	
COc1ccc(NC(=O)CN(C)S(=O)(=O)c2cccc3cccnc23)cc1	inconclusive [activator, single point]	
CCC(C)n1cnc2c(c1=O)c1nc3ccccc3nc1n2Cc1ccc2c(c1)OCO2 (configuration not stated)	inactive	
O=C1CNCCCN2CCN(CCCNCC(=O)Nc3ccc(cc3)S(=O)(=O)c3ccc(cc3)NC(=O)CNCCCN3CCN(CCCNCC(=O)Nc4ccc(cc4)S(=O)(=O)c4ccc(cc4)N1)CC3)CC2	inconclusive [activator, single point]	
CS(=O)(=O)Nc1cccc(-c2nc(-n3ccnc3)c3ccccc3n2)c1	inconclusive [activator, partial curve]	
Cc1ccc(CNC(=O)c2cccc(OCc3c(C)noc3C)c2)cc1	inconclusive [activator, full curve]	
CCOC(=O)CSc1nc2cc(OCC)ccc2cc1C#N	inconclusive [activator, partial curve]	
CCCCOC(=O)C1=C(C)Nc2ncnn2C1c1cccc(OC)c1OC (configuration not stated)	inconclusive [activator, partial curve]	
Cc1nnc(NC(=O)C2CCCO2)s1 (configuration not stated)	inactive	
COc1ccc(C2C(C(=O)NCC3CCCO3)c3cc(OC)c(OC)cc3C(=O)N2C)cc1OC (configuration not stated)	inconclusive [activator, single point]	
CCc1ccc(NC(=O)CSc2nc3ccccc3c(=O)n2CCN2CCOCC2)cc1	active: 31.6 µM	

SMILES	Potency	activation
CC1(C)CC(=O)C(C=NCCC2=CCCCC2)=C(O)C1	inconclusive [activator, single point]	
Cn1c(SCC(N)=O)nnc1C1CCN(C(=O)NCc2ccccc2)CC1	inconclusive [activator, single point]	
O=C(c1cccc(F)c1)N1CCC2(CC1)CCN(c1ccc(-c3ccccc3)cc1)CC2	active: 15.8 µM	
O=C(Cn1cnc2ccccc2c1=O)NC1CCCc2ccccc21 (configuration not stated)	inconclusive [activator, single point]	
Cn1c(=O)c2c(nc(CN3CCN(c4ccccc4)CC3)n2CCCc2ccccc2)n(C)c1=O	inconclusive [activator, single point]	
CN(C)c1nc(Oc2ccc(C(=O)OCC(=O)Nc3ccccc3)cc2)nc(N(C)C)n1	active: 3.16 µM	
Clc1ccc(C2Nc3ccccc3-n3cccc32)cc1 (configuration not stated)	inconclusive [activator, single point]	
COCCn1c(=O)c(-c2ccc(Cl)cc2)nc2cnc(Oc3ccccc3)nc21	inconclusive [activator, single point]	
O=C(CCC1N=C2c3ccccc3N=C(SCc3ccc(Cl)cc3)N2C1=O)NCc1ccco1 (configuration not stated)	active: 20 µM	
COCCN(CCOC)Cc1c(O)ccc2c3c(c(=O)oc12)CCC3	inactive	
CCNC(=O)C(C)Sc1ccc(Cl)cc1 (configuration not stated)	inconclusive [activator, partial curve]	
c1ccc(OCCSc2ncnc3nc[nH]c23)cc1	inconclusive [activator, single point]	
CCc1c(O)nc(SCC(=O)Nc2ccc3c(c2)CCC3)[nH]c1=O	active: 25.1 µM	
COc1ccc(-n2c(=O)c(-c3ccc(Cl)cc3)nc3cnc(N(C)C)nc32)cc1		inactive: 9.34% [at 0.457 µM]
COCCn1c(SCc2cnc(-c3ccccc3)s2)nnc1-c1ccncc1	inconclusive [activator, single point]	
CC#CC(C)C(OCOC)C(CC(C)Cc1cc(Br)cc(OCc2ccccc2)c1OC)OC (configuration not stated)		inactive: 17.9% [at 11.4 µM]
COc1ccccc1C1CC(c2ccccc2)Nc2ncnn21 (configuration not stated)	inconclusive [activator, partial curve]	
Cc1ccc(S(=O)(=O)c2cc3c(=O)n4ccccc4nc3n(Cc3ccco3)c2=N)cc1	inactive	
O=C(CCCn1c(=O)c2sccc2n(Cc2ccc(F)cc2)c1=O)NCc1ccco1	inconclusive [activator, partial curve]	
CCOc1ccc(C(=O)c2cccs2)cc1	inconclusive [activator, single point]	
CCN(CC)c1cccc(O)c1	inactive	
O=c1c2c3c(sc2nc2n1CCCC2)CCC3	inconclusive [activator, single point]	
CCOC(=O)C1=C(CNC2CCCCC2)NC(=O)NC1c1cc(C)ccc1C (configuration not stated)	inconclusive [activator, full curve, poor fit]	
CC12CC3OS(=O)OC3CC3C4C(C(OCc5ccccc5)C31)C42 (configuration not stated)		inactive: 8.88% [at 11.4 µM]

SMILES	Potency	activation
CCOC(=O)c1c(NC(=O)CN(CC)CC)sc2c1CCN(C(=O)OCC)C2	inconclusive [activator, single point]	
CC1CN(c2nc(-c3ccccc3)nc3ccccc23)CC(C)O1 (configuration not stated)	inconclusive [activator, single point]	
COc1cccc([C@@H]2Oc3ccc(OC)cc3/C(=N/OC[C@@H](C)[C@H](OCc3ccccc3)C(C)C)[C@@H]2O)c1		inactive: 14.5% [at 11.4 µM]
Cn1c(=O)c(-c2ccc(F)cc2)nc2cnc(Oc3ccccc3)nc21	inconclusive [activator, full curve]	
O=C(CN1CCN(S(=O)(=O)c2ccc(F)cc2)CC1)Nc1cc(C(F)(F)F)ccc1Cl	inconclusive [activator, partial curve]	
COC(=O)c1ccc(NC(=O)c2sc3nc(-c4ccccc4)cn3c2C)cc1	active: 31.6 µM	
Cc1cc(OCC(=O)Nc2ccncc2)ccc1Br	inconclusive [activator, partial curve]	
O=C(CN1C(=O)COc2ccccc21)N(Cc1cccnc1)Cc1ccccc1F	active: 10 µM	
O=C(Nc1ccccc1)N1CC2(CCN(C(=O)c3ccco3)CC2)C1	inconclusive [activator, single point]	
COc1ccc(C(c2c(O)ccc3ccccc23)N2CCOCC2)c(OC)c1 (configuration not stated)	inactive	
O=C(CSc1nnc(-c2ccco2)n1-c1ccccc1)NCCc1ccccc1	inconclusive [activator, single point]	
COC(=O)C1(Cc2ccccc2)C=C2C(=C(c3ccccc3)C(=O)C2C)CN1 (configuration not stated)	active: 31.6 µM	
CCOC(=O)c1c(NC(=O)c2cc(C3CC3)on2)sc2c1CCCC2	inactive	
N#Cc1cn(-c2ccccc2)nc1-c1cc2ccccc2oc1=O	inconclusive [activator, single point]	
CCNc1nc(NC(C)C)nc(Oc2ccc(OCCOc3ccccc3)nn2)n1	inconclusive [activator, single point]	
Cc1ncoc1C(=O)Nc1cccc(Cl)c1	inconclusive [activator, single point]	
Cc1ccc(NC(=O)C2CCCN(c3ncccn3)C2)cc1F (configuration not stated)	inconclusive [activator, single point]	
CCSc1nc2c([nH]c3ccccc32)c(=O)n1C	inactive	
Cc1cc(C2(c3cc(C)c(O)cc3C)OS(=O)(=O)c3ccccc32)c(C)cc1O	inactive	
O=C(Nc1ccc(-c2cn3ccsc3n2)cc1)C1CCCC1	inactive	
OC[C@@H]1CCC[C@H](n2cnc3c(=S)nc[nH]c32)O1		inactive: 5.32% [at 11.4 µM]
O=C(Nc1cccc2cccnc12)c1ccc(Br)o1	inconclusive [activator, single point]	
COC(=O)[C@@H](NC(=O)N(C1CCCCC1)C1CCCCC1)C(C)C	inconclusive [activator, single point]	
CC(C)=NOC[C@@H](C)[C@H](OCc1ccccc1)C(C)C		inactive: 2.42% [at 11.4 µM]
